In PubChem BioAssay AID651820 (National Center for Advancing Translational Sciences (NCATS), 2012):
Hit rate of the full screen: of about 340,000 compounds, about 12,000 (3.5%) were called active. Inconclusive means that the source gave no clear call. Such entries were picked first, then a sample of the others. Calls come from the whole dose curve; as a rule, active = well fitted inhibition curve with a large enough effect; inconclusive = small, poorly fitted or top-dose-only effect, or another doubt; inactive = no such curve, though single readings can be large or run the other way. Potencies of inconclusive entries are left out as doubtful fits.

Experiment: qHTS Assay for Inhibitors of Hepatitis C Virus (HCV)
Conditions: Huh7.5.1 HCVcc-Cre (HCVcc is cell-culture hepatitis C virus) infection, luciferase reporter, 44 h; activity change, negative = inhibition: at 41.8 µM (top of the series) unless noted
Procedure, shortened: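 Seed cells (1,000/well) for 4 h; treat with compound and infect with HCVcc-Cre, moi about 0.5. Incubate 44 h, then detect luciferase activity.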
% is set by controls: 0 for no effect and ±100 for the full control effect; potency is the fitted concentration of half-maximal effect; tags give direction and shape of the fitted curve.

| Compound | Potency | activity change, negative = inhibition |
| --- | --- | --- |
| CN1c2ccccc2Oc2nnc(N3CCN(Cc4ccccc4)CC3)cc21 | inconclusive [inhibitor, partial curve] |  |
| COc1ccc2nc(N3C(=O)CC(C(C)c4ccccc4)C3=O)sc2c1 (centres undefined) |  | inactive: -0.31% |
| CC(=O)Nc1ccc(C(=O)OCC(=O)NCCC2=CCCCC2)cc1 | inconclusive [inhibitor, partial curve] |  |
| COc1ccc(-c2noc(N3CCC(C(=O)Nc4ccccc4OC)CC3)n2)cc1 | inconclusive [inhibitor, partial curve] |  |
| CC(=O)Nc1ccc(N2CCN(c3ccc(C(F)(F)F)cn3)CC2)nc1 | inconclusive [inhibitor, full curve, poor fit] |  |
| CCOc1ccc(CN(C)C(=O)CN2C(=O)NC3(CCCc4ccccc43)C2=O)cc1 (centres undefined) | inconclusive [inhibitor, partial curve] |  |
| O=C(CCN1C(=O)COc2ccccc21)NCCN1CCN(c2cccc(Cl)c2)CC1 | inconclusive [inhibitor, partial curve] |  |
| CCCCn1c(/C=C/c2ccco2)nc2ccccc21 |  | inactive: -4.84% |
| COc1cc(/C=N/Nc2ccc(C(=O)O)cc2)ccc1O |  | inactive: -5.23% |
| Cc1ccc(CNC(=O)CCc2ccccc2)cc1 |  | inactive: 9.57% |
| Cc1ccc(NC(=O)C(C)Oc2ccccc2)cc1S(=O)(=O)N1CCCCCC1 (centres undefined) | inconclusive [inhibitor, partial curve, poor fit] |  |
| Cc1noc(C)c1NC(=O)Nc1ccc2c(c1)C(=O)N([C@H](C)CO)C[C@H](C)[C@@H](CN(C)S(C)(=O)=O)O2 | inconclusive [inhibitor, single point] |  |
| COc1ccc(O)c(-c2cc(-c3cccc(Br)c3)n[nH]2)c1 | inconclusive [inhibitor, single point] |  |
| COc1cc(C2c3c(-c4cc(Cl)c(C)cc4O)n[nH]c3C(=O)N2Cc2cccnc2)ccc1O (centres undefined) |  | inactive: -12.1% |
| CCOc1ccccc1C(=O)N[C@H](C(=O)Nc1ccc(OC)c(S(=O)(=O)N2CCOCC2)c1)C(C)C | inconclusive [inhibitor, partial curve, poor fit] |  |
| O=C(C[n+]1cccc2ccccc21)c1ccc([N+](=O)[O-])cc1 | active: 11.2 µM |  |
| Cn1c(/C=C/c2ccccc2[N+](=O)[O-])nc2ccccc2c1=O | inconclusive [inhibitor, partial curve, poor fit] |  |
| CC(NC(=O)c1cc([N+](=O)[O-])cc([N+](=O)[O-])c1)c1ccc(-n2ccnc2)cc1 (centres undefined) |  | inactive: -6.54% |
| CCCN1C(=O)/C(=C/C=C2\N(CC)c3ccccc3C2(C)C)SC1=S | inconclusive [inhibitor, partial curve] |  |
| O=C(CSc1nnnn1C1CCCC1)Nc1cccc(NC(=O)c2ccco2)c1 |  | inactive: -11.9% |
| COc1cc(NC(=O)c2ccc3c(c2)OCO3)c2ncccc2c1 | inconclusive [inhibitor, full curve] |  |
| COc1ccc2oc(C(=O)N(CC(C)C)C3CCS(=O)(=O)C3)c(C)c2c1 (centres undefined) |  | inactive: -5.42% |
| CCOC(=O)C1CCN(C(=O)c2ccc(OCC)c(OCC)c2)CC1 |  | inactive: 10.2% |

| Compound | Potency | activity change, negative = inhibition |
| --- | --- | --- |
| CCc1nc2ccccc2c(C(=O)OCC(=O)NCc2ccc3c(c2)OCO3)c1C | inconclusive [inhibitor, partial curve] |  |
| Cc1ccc(OCc2nnc(SCC(=O)C(C)(C)C)n2Cc2ccco2)cc1 | inconclusive [inhibitor, single point] |  |
| Nc1cccc(-c2cc3ccccc3oc2=O)c1 |  | inactive: -26.9% |
| Cc1ccc(NP(=O)(Nc2ccc(C)cc2)Nc2ccc(C)cc2)cc1 | inconclusive [inhibitor, partial curve] |  |
| CC(=O)c1c(C)[nH]c(C(=O)Nc2ccc(C)c(C)c2)c1C | inconclusive [inhibitor, partial curve] |  |
| COc1ccc(-c2[nH]ncc2CN2CCC(c3ccncc3)CC2)cc1F |  | inactive: 29.2% |
| CN(Cc1ccc(C(C)(C)C)cc1)C(=O)c1ccc2c(c1)OCO2 | inconclusive [inhibitor, partial curve, poor fit] |  |
| COc1ccc2nc(-n3c(C)ccc3C)sc2c1 |  | inactive: -15.6% |
| COC(=O)c1ccc(Oc2cc(C)nc(-n3nc(C)cc3C)n2)cc1 | inconclusive [inhibitor, full curve, poor fit] |  |
| COc1ccc(NC(=O)CN(C)C(=O)c2cc(C3CC3)nn2-c2ccccc2)cc1 | inconclusive [inhibitor, single point] |  |
| Cc1ccc(S(=O)(=O)N2CCC(C(=O)Nc3ncccc3O)CC2)cc1 | inconclusive [inhibitor, single point] |  |
| CCc1cccc2c1NC(=O)C21N2CCCC2C(C(=O)c2ccc3ccccc3c2)C12C(=O)Nc1ccccc12 (centres undefined) | inconclusive [inhibitor, single point] |  |
| Cn1nnnc1N=N/C(=N/Nc1ccccc1)c1ccccc1 | active: 3.98 µM |  |
| COc1cc(/C=N/NC(=O)CCC(=O)Nc2ccc(Br)cc2)ccc1O |  | inactive: 1.85% |
| COc1cccc(NC(=O)c2ccc(S(=O)(=O)N3CCCCC3)cc2)c1 | inconclusive [inhibitor, partial curve] |  |
| COc1ccc(CCNC(=S)N2CCN(S(=O)(=O)c3ccc(C)cc3)CC2)cc1 | inconclusive [inhibitor, single point] |  |
| COc1ccc2cc(C(=O)Nc3ccccc3)sc(=O)c2c1OC | inconclusive [inhibitor, partial curve] |  |
| CC(C)(C)C(=O)N1CCN(c2ccc(NC(=O)c3ccc([N+](=O)[O-])o3)cc2)CC1 | inconclusive [inhibitor, single point] |  |
| CCOc1ccc(Cl)cc1S(=O)(=O)n1nnc2ccccc21 |  | inactive: 13.1% |
| Cc1cc(C)n2nc(C(=O)OCC(=O)N(Cc3ccccc3)C(C)C)nc2n1 |  | inactive: -15.8% |
| COc1ccc(-c2c(C)cc3oc(=O)cc(-c4ccccc4)c3c2C)cc1F | inconclusive [inhibitor, single point] |  |
| O=C(/C=C/c1ccc(OCc2ccccc2)c(OCc2ccccc2)c1)c1cccnc1 | inconclusive [inhibitor, full curve] |  |
| COC(=O)c1cc(NC(=O)C2CC2)cc(C(=O)OC)c1 | inconclusive [inhibitor, full curve, poor fit] |  |

| Compound | Potency | activity change, negative = inhibition |
| --- | --- | --- |
| COc1ccc(CC(=O)Nc2nc(-c3ccccc3)c(C(C)=O)s2)cc1OC | active: 12.6 µM |  |
| CSc1sc(C(=O)NC(=O)NCc2ccncc2)c(C)c1-c1ccon1 | inconclusive [inhibitor, partial curve] |  |
| COc1cc(/C=C/C(=O)OCC(=O)c2ccccc2)cc(OC)c1OC |  | inactive: -9.1% |
| Cc1ccc(CNC(=O)Cn2cnc3c(OCc4ccccc4)ncnc32)o1 | inconclusive [inhibitor, single point] |  |
| CCOc1ccc(/C=N/NC(=O)c2nnn(-c3nonc3N)c2-c2ccc(OCC)cc2)cc1 | inconclusive [inhibitor, partial curve] |  |
| CCCC(=O)N1CCN(c2nc3ccc(CC)cc3s2)CC1 |  | inactive: 12.5% |
| Cn1c(CCN2CCCCC2)nc2cc(NS(=O)(=O)c3ccc(Cl)cc3)ccc21 | inconclusive [inhibitor, single point] |  |
| CC(C)C[C@@H](CN1CCC[C@@H]1CN1C(=O)C(=O)NC[C@@H]1Cc1ccccc1)N1C[C@H](Cc2ccc(O)cc2)N(CC2CCCCC2)C(=O)C1=O |  | inactive: -14.3% |
| COc1cc(/C=C2/SC(=Nc3ccc(O)cc3)NC2=O)ccc1O | inconclusive [inhibitor, full curve] |  |
| CCC(C)[C@H](NC(=O)OC(C)(C)C)C(=O)NCC1CCC(C(=O)N[C@@H](Cc2ccccc2)C(=O)O)CC1 (some centres undefined) |  | inactive: 18.4% |
| COc1ccc(S(=O)(=O)N2CCN(C(=O)CCSc3ccccc3)CC2)cc1 | inconclusive [inhibitor, single point] |  |
| CN(C)c1ccc(N=Nc2ccccc2Br)cc1 | inconclusive [inhibitor, single point] |  |
| CCOC(=O)C1CCCN(C(=O)c2[nH]c3ccc(OC)cc3c2C)C1 (centres undefined) |  | inactive: 1.31% |
| CC(=O)c1cc2c(cc1NC(=O)c1cc(C)nn1-c1ccccc1)OCO2 | inconclusive [inhibitor, full curve, poor fit] |  |
| CCc1ccc(N(C(=O)c2snc(C(N)=O)c2N)C(C(=O)NCC2CCCO2)c2cccs2)cc1 (centres undefined) | inconclusive [inhibitor, partial curve] |  |
| COc1cccc2sc(Nc3nnc(-c4cccs4)o3)nc12 | inconclusive [inhibitor, single point] |  |
| Cc1ccccc1OCCNc1cc(N2CCCCC2)ccc1[N+](=O)[O-] | active: 14.1 µM |  |
| Cc1cc(/C=N/n2cnnc2)c(C)n1-c1ccc(OCc2ccc(Cl)cc2Cl)cc1 | active: 5.62 µM |  |
| Cc1ccc(OCC(=O)Nc2ccc(CN3CCCCC3)cc2)c(C)c1 | inconclusive [inhibitor, single point] |  |
| CCC1c2ccc(C)n2CCN1C(=O)Nc1cc(Cl)ccc1OC (centres undefined) | inconclusive [inhibitor, single point] |  |
| CSc1nc2nccc(-c3ccc(Cl)cc3)n2n1 |  | inactive: 7.14% |
| O=C(Nc1cccc(Cl)c1)c1cc(F)cc2c1OCOC2 | inconclusive [inhibitor, single point] |  |
| COc1cc(/C=C2\CCC(C)C3=C(c4cc(OC)c(OC)c(OC)c4)C(C#N)=C(N)OC32)cc(OC)c1OC (centres undefined) | inconclusive [inhibitor, partial curve] |  |
